# In article PMC4336329 (PLoS ONE, 2015):
# The whole screen tested about 310,000 compounds, of which about 14,000 (4.5%) showed an effect of 50% or more. Effects have a minus sign here. Some of the results follow.
# Target: human ether-à-go-go-related gene (hERG) potassium channel (human, UniProt Q12809)
# Assay: primary screen, population patch clamp on CHO cells stably expressing hERG
# 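Further: peak tail current of the secondary pulse compared with the same well before compound.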
# Sequence of human ether-à-go-go-related gene (hERG) potassium channel (Q12809 whole entry, looked up): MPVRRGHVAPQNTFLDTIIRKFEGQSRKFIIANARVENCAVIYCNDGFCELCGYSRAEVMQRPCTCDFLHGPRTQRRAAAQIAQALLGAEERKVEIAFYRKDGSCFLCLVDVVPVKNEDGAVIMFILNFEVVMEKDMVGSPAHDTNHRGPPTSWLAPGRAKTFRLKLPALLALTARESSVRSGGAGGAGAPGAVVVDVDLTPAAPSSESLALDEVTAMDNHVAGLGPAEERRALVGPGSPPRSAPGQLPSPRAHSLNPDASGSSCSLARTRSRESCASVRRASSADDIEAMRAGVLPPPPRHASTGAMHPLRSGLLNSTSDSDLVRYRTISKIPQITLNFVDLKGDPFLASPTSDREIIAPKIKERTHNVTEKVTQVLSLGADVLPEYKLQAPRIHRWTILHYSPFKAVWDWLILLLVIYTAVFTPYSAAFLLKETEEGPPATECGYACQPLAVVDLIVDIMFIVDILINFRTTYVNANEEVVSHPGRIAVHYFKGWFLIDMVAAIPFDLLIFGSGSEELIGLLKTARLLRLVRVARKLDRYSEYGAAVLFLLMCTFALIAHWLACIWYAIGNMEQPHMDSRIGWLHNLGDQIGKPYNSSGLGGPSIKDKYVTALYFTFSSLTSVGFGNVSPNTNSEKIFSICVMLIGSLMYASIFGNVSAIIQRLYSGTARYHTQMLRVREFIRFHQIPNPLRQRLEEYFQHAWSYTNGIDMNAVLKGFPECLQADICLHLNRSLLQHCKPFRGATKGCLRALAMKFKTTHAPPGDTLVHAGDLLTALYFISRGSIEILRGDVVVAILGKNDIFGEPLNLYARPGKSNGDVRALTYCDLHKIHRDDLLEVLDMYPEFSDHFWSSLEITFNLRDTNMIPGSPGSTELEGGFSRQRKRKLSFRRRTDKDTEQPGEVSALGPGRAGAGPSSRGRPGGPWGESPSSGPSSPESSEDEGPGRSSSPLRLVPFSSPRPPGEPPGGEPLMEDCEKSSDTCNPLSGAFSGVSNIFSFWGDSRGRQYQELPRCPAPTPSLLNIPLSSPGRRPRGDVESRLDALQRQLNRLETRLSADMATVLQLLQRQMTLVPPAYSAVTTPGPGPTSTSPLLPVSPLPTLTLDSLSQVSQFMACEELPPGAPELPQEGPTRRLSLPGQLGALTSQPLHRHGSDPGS
row,SMILES,"hERG current change (%, negative = inhibition) at 10uM [%]"
1,CC1CN(S(=O)(=O)c2cccc(C(=O)OCC(=O)c3cccs3)c2)CC(C)O1 (centres unmarked),5.85
2,CCN1CCN(C(=O)c2ccc3c(c2)N(Cc2ccc(C)cc2)CCS3)CC1,-48.2
3,Cc1cccc(N2CCN(S(=O)(=O)c3ccc(-c4coc(C)n4)cc3)CC2C)c1 (centres unmarked),8.34
4,CN1C(N)=NC(=O)/C1=C\c1ccc(Br)cc1,8.35
5,COc1ccc(C2=CC(=O)CC(c3ccccc3)C2)cc1 (centres unmarked),5.79
6,OCCC1CN(Cc2ccc(C(F)(F)F)cc2)CCN1Cc1ccccc1 (centres unmarked),-56.8
7,CC(C)n1c(CSCc2ccc(Cl)cc2Cl)n[nH]c1=S,3.14
8,Clc1cccc(Cl)c1COc1ccncc1,7.32
9,COc1ccc(CC(=O)N(C)Cc2cccc(OC)c2OC)cc1S(=O)(=O)N1CCOCC1,-5.58
10,O=C(c1cccc(Cl)c1)N1CCCC(c2ccc(Cl)cc2)=N1,30.2
11,CCOC(=O)C(NC(=O)c1ccccc1)(OCc1ccc(F)cc1)C(F)(F)F (centres unmarked),3.14
12,CC1(C(=O)NC2CCCCCCC2)CCC(=O)N1CCN1CCOCC1 (centres unmarked),9.36
13,COc1ccc(C(=O)/C=C/c2ccc3c(c2)OCCO3)cc1,17.5
14,Fc1ccc(NCc2nnc(SCc3nnc(-c4ccccc4)o3)n2CC2CCCO2)cc1 (centres unmarked),-53.1
15,COC(=O)C1=CN(CC2CCCO2)C=C(C(=O)OC)C1c1cccc(O)c1 (centres unmarked),-9.21
16,CCCCSc1nc(O)c(Cc2ccccc2)c(=O)[nH]1,1.07
17,CC(OC(=O)c1cccs1)C(=O)NCc1ccc2c(c1)OCO2 (centres unmarked),15.4
18,CCOc1ccc(OCCC(=O)OCC(=O)NNC(=O)c2ccccc2)cc1,11.2
19,CCCOc1ccc(N2C(=O)CC(SC(=NCC)Nc3cccc(F)c3)C2=O)cc1 (centres unmarked),2.28
20,COc1ccc(NC(=O)C2CCCN2S(=O)(=O)c2cccs2)c([N+](=O)[O-])c1 (centres unmarked),-68.3
21,CCn1c(=O)c2ccccc2n2c(SCC(N)=O)nnc12,13.4
22,CCOCCc1nnc(NC(=O)CCc2ccccc2)s1,14.5
23,CCOC(=O)C1(C)/C(=N/Nc2ccc(Cl)cc2)C(=O)C(=O)N1c1ccccc1 (centres unmarked),2.94

row,SMILES,"hERG current change (%, negative = inhibition) at 10uM [%]"
1,CCn1nc(C)cc1C(=O)NC1CC(C)(C)Cc2c1cnn2-c1cccc(F)c1 (centres unmarked),-16.3
2,CCOCCOC(=O)C1=C(C)Nc2ccc(C)cc2S1,-3.7
3,CNC(=O)NC(=O)CSc1ncc(C(F)(F)F)cc1Cl,5.81
4,Cc1ccnc(NC(=O)c2ccc3c(c2)C(=O)N(CCC(C)C)C3=O)c1,-5.82
5,CN(C)S(=O)(=O)c1cccc(C(=O)OCC(=O)Nc2ccc3c(c2)OCCO3)c1,6.72
6,Cc1nc2c(C)cccc2cc1C(=O)N/N=C/c1ccc(N(C)C)cc1,-9.49
7,COc1ccc(C(=O)Nc2ccc(S(=O)(=O)Nc3onc(C)c3C)cc2)c(OC)c1,12.1
8,CCOc1ccc(-c2nc(CSCC(=O)NCCN3CCOCC3)c(C)o2)cc1,11.3
9,COCCNP(=O)(c1ccccc1)c1nc2ccccc2s1 (centres unmarked),-4.16
10,O=C(NC1CCCCCC1)C1c2ccccc2C(=O)N1Cc1ccco1 (centres unmarked),-28.6
11,Cl.O=C(CN1C2CCC1CC(NC(=O)NC1CCCCC1)C2)NC1CC1 (centres unmarked),-2.58
12,COc1ccc(C)cc1NC(=O)Cn1cnnn1,29.2
13,COc1ccc(NC(=O)CNC(=O)c2nn(-c3ccc(OC)c(Cl)c3)c(=O)c3ccccc23)c(OC)c1,12
14,CCCn1c(SCC(=O)Nc2c(C)cccc2CC)nnc1C(C)C,3.71
15,O=C(COc1ccc(Cl)cc1)N(Cc1ccccc1)c1ccccn1,-36
16,CC1CC(C)CN(S(=O)(=O)c2ccc(C(=O)NN3CCOCC3)cc2)C1 (centres unmarked),4.53
17,CCCCn1c(-c2cccc(C)c2)nc2cc3[nH]c(=O)c(C(C)C)nc3cc21,0.235
18,O=C(O)c1ccc(CSc2nc3ccccc3o2)cc1,1.24
19,CCn1c(-c2sc(-c3ccccc3)nc2C)n[nH]c1=S,3.82
20,CCOC(=O)C(C)n1cnc2c1c(=O)[nH]c(=O)n2C (centres unmarked),5.89
21,COc1ccccc1N/C=C1/Sc2cc(Cl)ccc2NC1=O,8.45
22,CN(C)C(=S)Nc1ccc(Cl)cc1,25
23,CCOC(=O)N1CCN(C(=O)c2c(-c3c(Cl)cccc3Cl)noc2C)CC1,6.65

row,SMILES,"hERG current change (%, negative = inhibition) at 10uM [%]"
1,O=c1ccc2cc(S(=O)(=O)N3CCN(c4ccccc4)CC3)ccc2[nH]1,-0.995
2,CCOc1nc(C)ccc1-c1noc(C)n1,7.48
3,CC(C)Cn1nc(C(=O)Nc2cccc(C(=O)NC3CC3)c2)c2ccccc2c1=O,-71.6
4,CCOc1ccc(NC(=O)COC(=O)CC2CCCCC2)cc1,-6.75
5,Cc1c(Cl)cccc1-n1c(SCC(=O)NCc2ccccc2Cl)nnc1-c1ccncc1,-36
6,CCc1cc(CNC(=O)C2CCC(=O)N(CCc3ccc(OC)cc3)C2)on1 (centres unmarked),-24.1
7,COCCNS(=O)(=O)c1ccc(Cl)c(C(=O)NC2CCN(Cc3ccccc3)CC2)c1,-1.21
8,COc1cccc(NC(=O)CSc2nc3ccccc3n2C)c1,-16.5
9,CN(CC(=O)Nc1ccc(F)cc1)C(=O)CSc1nc2ncc(Cl)cc2[nH]1,-31.5
10,C=CCNC1=C(Cl)C(=O)N(Cc2ccccc2)C1=O,-1.74
11,O=C(COC(=O)c1cn(-c2ccccc2)nc1-c1ccccc1)c1ccc([N+](=O)[O-])cc1,-1.56
12,Cc1nn2c(N)c(-c3ccccc3)cnc2c1-c1ccccc1,26.2
13,O=C(c1ccc(Sc2cccc(Cl)c2)c([N+](=O)[O-])c1)N1CCN(c2ccccn2)CC1,-13.5
14,COc1ccccc1NS(=O)(=O)c1ccc(/C=C/C(=O)N2CCN(C(C)=O)CC2)cc1,-7.97
15,COc1ccccc1-n1cnnc1SCC(=O)Nc1cc(C)on1,3.8
16,Cc1ccc(Sc2ccc(C=C3C(=O)N(C)C(=O)N(C)C3=O)o2)cc1,12.2
17,Cc1ccc(NC(=O)c2cnn(C)c2)cc1[N+](=O)[O-],-5.92
18,CCOC(=O)C1CCN(C(=O)CC2(CC(=O)O)CCCC2)CC1,-0.575
19,O=C(Nc1cccc(NC(=O)c2ccccc2Cl)c1)c1cccs1,2.54
20,Cc1ccc(S(=O)(=O)/N=C(/Nc2ccc(O)c(C(=O)O)c2)c2ccccc2)cc1,10
21,Cn1c(=O)c2c(c3ccccc31)OC(C)(C)CC2,-6.49
22,C=CCNc1c2c(nc3nnnn13)CCCC2,11.7
23,COc1ccc(Nc2ncc3c(n2)CC(c2ccc(C)cc2)CC3=O)cc1 (centres unmarked),-10.7

row,SMILES,"hERG current change (%, negative = inhibition) at 10uM [%]"
1,O=C(c1ccc(Br)cc1)N1CCC2(CC1)NCCc1[nH]cnc12,-65.8
2,Cc1onc(-c2c(F)cccc2Cl)c1C(=O)Nc1cccc(Cn2cccn2)c1,-6.12
3,CCC(C)(C)NC(=O)C(c1cccc(OC)c1OC)N(CCOC)C(=O)CCC(=O)Nc1cc(C)on1 (centres unmarked),-3.49
4,NC(=O)c1ccsc1NC(=O)C1CC1,8.68
5,CCN1CCN(C(=S)Nc2cc(C(=O)OC)ccc2C(=O)OC)CC1,16.9
6,NC(=O)c1ccc(NC(=O)CN2CCN(S(=O)(=O)c3ccc4c(c3)OCCO4)CC2)cc1,-3.78
7,Cc1cc(=O)[nH]c(SCc2ccc(Cl)cc2)n1,12.9
8,C[C@H](N)c1nnc(SCC(=O)c2ccc(Cl)cc2)o1,-6.79
9,COCCCNC(=O)CNC(=S)N(Cc1ccccc1F)C1CCCCC1,4.18
10,CN(C)NC(=O)c1ccsc1NC(=O)c1ccc(S(=O)(=O)N2CCCC2)cc1,-25.6
11,Cc1sc2nc(SC3CCOC3=O)n(Cc3ccccc3)c(=O)c2c1C (centres unmarked),-9.22
12,Cc1onc(-c2ccccc2Cl)c1C(=O)Nc1c(C)n(C)n(-c2ccccc2)c1=O,-2.88
13,O=C(NCC1CCCO1)c1c(O)c2cccc3c2n(c1=O)CCC3 (centres unmarked),1.5
14,COc1ccc(S(=O)(=O)N(C(C)=O)c2ccc3oc(=O)sc3c2)cc1,-6.59
15,c1ccc(C(c2nnnn2C2CCCC2)N2CCN(c3ccccc3)CC2)cc1 (centres unmarked),-14.9
16,CCC1Oc2ccc(C)cc2N(CC(=O)N(Cc2ccc(C)o2)C2CCCC2)C1=O (centres unmarked),-12.2
17,CN(CC(=O)NC1CCCc2ccccc21)S(=O)(=O)c1cccs1 (centres unmarked),-10.6
18,Cc1cc(Br)ccc1NC(=O)CSc1nnc(CN2CCOCC2)n1C,9.05
19,O=C(Cc1n[nH]c(=O)[nH]c1=O)N/N=C/c1cccc(O)c1,17.6
20,Cc1ccc2c(c1)nnn2C1CCN(S(=O)(=O)c2cccc(S(=O)(=O)N(C)C)c2)CC1,-16.7
